Screen size: about 110,000 compounds; about 230 (0.21%) showed an effect of 50% or more. This is one part of the list.
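Further: 30 min substrate incubation versus DMSO and 10 µM JCP410 controls.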

For this assay, the target named is DPAP1 (Plasmodium falciparum, UniProt Q8IIJ9). Description: primary screen, percent inhibition; read by cleavage of a fluorogenic dipeptide substrate; higher = more effect of the substance. Details: species or system P. falciparum D10 trophozoite lysates; single well.
DPAP1, sequence (Q8IIJ9 whole entry, looked up): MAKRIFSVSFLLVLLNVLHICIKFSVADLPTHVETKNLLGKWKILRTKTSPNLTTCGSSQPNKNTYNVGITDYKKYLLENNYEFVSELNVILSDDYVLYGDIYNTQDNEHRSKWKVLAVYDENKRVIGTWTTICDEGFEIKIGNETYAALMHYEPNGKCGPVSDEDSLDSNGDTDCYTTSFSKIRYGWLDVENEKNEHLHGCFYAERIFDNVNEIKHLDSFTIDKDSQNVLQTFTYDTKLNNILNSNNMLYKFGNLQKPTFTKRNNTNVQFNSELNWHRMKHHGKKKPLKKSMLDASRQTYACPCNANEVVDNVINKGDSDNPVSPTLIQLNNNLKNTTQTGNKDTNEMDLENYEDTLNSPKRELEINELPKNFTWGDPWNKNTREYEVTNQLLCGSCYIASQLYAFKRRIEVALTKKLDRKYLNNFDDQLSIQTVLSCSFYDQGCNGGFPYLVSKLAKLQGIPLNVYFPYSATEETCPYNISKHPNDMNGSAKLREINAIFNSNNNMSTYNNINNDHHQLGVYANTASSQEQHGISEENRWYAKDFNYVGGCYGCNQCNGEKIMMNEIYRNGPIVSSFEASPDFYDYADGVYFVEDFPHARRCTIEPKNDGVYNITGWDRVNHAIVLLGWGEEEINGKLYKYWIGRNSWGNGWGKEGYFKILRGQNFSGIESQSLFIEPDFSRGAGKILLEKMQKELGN
With `COc1ccc(-c2cn3c(n2)sc2cc(C(=O)NCc4ccc5c(c4)OCO5)ccc23)cc1`, the “% Inhibition @ 10 uM” value is 3.54%.

For the molecule `CC(=O)N1c2ccccc2C(Nc2ccccc2)CC1C` (stereo not drawn), the “% Inhibition @ 10 uM” value was -0.424%. On to `CN(c1ccc(C(=O)NCc2ccncc2)cc1)S(C)(=O)=O`, for which the “% Inhibition @ 10 uM” value is listed as -1.6%.

Regarding `COc1cc(/C=C2\N=C(c3cccc(F)c3)OC2=O)cc(OC)c1OC`, the “% Inhibition @ 10 uM” value is listed as 6.11%. The result for `CCCCNC(=O)C(CC)Sc1nc2nnc(C)c-2c(N)n1-c1ccc(OC)cc1` (stereo not drawn) reads 2.8%; that for `C=CCN(CC=C)C(=O)C(c1ccccc1)c1ccccc1`, 1.55%. The result for `COC(=O)C1=C(C)NC(=O)CC1c1ccc(F)cc1F` (stereo not drawn) reads -1.37%; that for `CCc1ccc(C2C3=C(O)CC(C)(C)CC3=NC(C)=C2C(=O)OC)s1` (stereo not drawn), -0.13%; that for `CNC(=O)CCCc1nnc2n(CC(C)C)c(=O)c3sccc3n12`, 4.23%. With `CC12CN3CC(C)(CN(C1)C3(C)CSc1c[nH]c3ccccc13)C2=O` (stereo not drawn), the “% Inhibition @ 10 uM” value is 7.2%. Turning to `COc1ccc(-n2cc(-c3ccccc3)c3c(NCc4cccnc4)ncnc32)cc1`, the “% Inhibition @ 10 uM” value is given as -1.44%. Consider `CSc1nc2c(c(=O)n(C)c(=O)n2C)n1Cc1ccc(Cl)cc1`, for which the “% Inhibition @ 10 uM” value is -5.79%. For `COc1cc(NC(=O)c2ccc(N(C)C)cc2)c(Cl)cc1NC(=O)c1ccccc1`, the “% Inhibition @ 10 uM” value is on record as -1.65%.

Take `CCCCC(=O)Nc1cc(-c2nc3ncccc3o2)ccc1Cl`: the “% Inhibition @ 10 uM” value worked out at 2.38%.

`COc1cccc2c(=O)cc(-c3ccc4c(c3)OCO4)n(C)c12`: the “% Inhibition @ 10 uM” value was found to be 8.44%. Take `CCC/N=c1\c(NS(=O)(=O)c2ccc(F)c(C)c2)c(O)oc2ccccc12`: the “% Inhibition @ 10 uM” value is -2.41%. On to `CC1CCN(C(=O)CCN2C(=O)c3ccccc3C2=O)CC1`, for which the “% Inhibition @ 10 uM” value is given as 2.06%. As to `COc1ccc(C(=O)Nc2ncc(Cc3cccc(Cl)c3)s2)cc1OC`, the “% Inhibition @ 10 uM” value came out at 13%. `CC(C)C[C@H](NC(=O)OC(c1ccccc1)C1CC1)C(=O)NCC#N` (stereo partly drawn): the “% Inhibition @ 10 uM” value was -3.04%. As to `CC(C)CNC(=O)c1cc(-c2ccccc2O)on1`, the “% Inhibition @ 10 uM” value is 0.628%. As to `Cc1noc2ncnc(N3CCC(Cc4ccccc4)CC3)c12`, the “% Inhibition @ 10 uM” value was -2.15%. For `Cc1ccc(S(=O)(=O)N(CC(=O)NC2CC3CCC2C3)c2ccccc2C)cc1` (stereo not drawn), the “% Inhibition @ 10 uM” value stood at 1.57%. As for `COc1ccc(C2CC(=O)c3cnc(NC(=O)c4ccccc4)nc3C2)cc1OC` (stereo not drawn), the “% Inhibition @ 10 uM” value is on record as 2.38%. The result for `COc1ccc(-c2nc3cc(NC(=O)c4ccco4)ccc3o2)cc1` reads 6.4%.

Turning to `Cc1c(Br)c(C(=O)NCc2cc3ccccc3[nH]2)nn1C`, the “% Inhibition @ 10 uM” value worked out at 0.389%.

As to `COc1ccc(OC)c(N2Cc3cc(C)c(C)cc3C2)c1`, the “% Inhibition @ 10 uM” value is recorded as 1.64%. In the case of `COc1ccc(/C=C(/NC(=O)c2ccc(Br)cc2)C(=O)Nc2cccc(C(=O)O)c2)cc1`, the “% Inhibition @ 10 uM” value was -1.06%.

The record behind these values is article PMC6919601, “Identification of Plasmodium dipeptidyl aminopeptidase allosteric inhibitors by high throughput screening” (PLoS ONE, 2019).
